Among all 310,000 compounds or so, about 2,200 (0.71%) showed an effect of 50% or more. The effect is printed as a negative number. Some of the results follow.
target: human ether-à-go-go-related gene (hERG) potassium channel (human, UniProt Q12809); assay: primary screen, population patch clamp on CHO cells stably expressing hERG
Sequence (Q12809 whole entry, looked up): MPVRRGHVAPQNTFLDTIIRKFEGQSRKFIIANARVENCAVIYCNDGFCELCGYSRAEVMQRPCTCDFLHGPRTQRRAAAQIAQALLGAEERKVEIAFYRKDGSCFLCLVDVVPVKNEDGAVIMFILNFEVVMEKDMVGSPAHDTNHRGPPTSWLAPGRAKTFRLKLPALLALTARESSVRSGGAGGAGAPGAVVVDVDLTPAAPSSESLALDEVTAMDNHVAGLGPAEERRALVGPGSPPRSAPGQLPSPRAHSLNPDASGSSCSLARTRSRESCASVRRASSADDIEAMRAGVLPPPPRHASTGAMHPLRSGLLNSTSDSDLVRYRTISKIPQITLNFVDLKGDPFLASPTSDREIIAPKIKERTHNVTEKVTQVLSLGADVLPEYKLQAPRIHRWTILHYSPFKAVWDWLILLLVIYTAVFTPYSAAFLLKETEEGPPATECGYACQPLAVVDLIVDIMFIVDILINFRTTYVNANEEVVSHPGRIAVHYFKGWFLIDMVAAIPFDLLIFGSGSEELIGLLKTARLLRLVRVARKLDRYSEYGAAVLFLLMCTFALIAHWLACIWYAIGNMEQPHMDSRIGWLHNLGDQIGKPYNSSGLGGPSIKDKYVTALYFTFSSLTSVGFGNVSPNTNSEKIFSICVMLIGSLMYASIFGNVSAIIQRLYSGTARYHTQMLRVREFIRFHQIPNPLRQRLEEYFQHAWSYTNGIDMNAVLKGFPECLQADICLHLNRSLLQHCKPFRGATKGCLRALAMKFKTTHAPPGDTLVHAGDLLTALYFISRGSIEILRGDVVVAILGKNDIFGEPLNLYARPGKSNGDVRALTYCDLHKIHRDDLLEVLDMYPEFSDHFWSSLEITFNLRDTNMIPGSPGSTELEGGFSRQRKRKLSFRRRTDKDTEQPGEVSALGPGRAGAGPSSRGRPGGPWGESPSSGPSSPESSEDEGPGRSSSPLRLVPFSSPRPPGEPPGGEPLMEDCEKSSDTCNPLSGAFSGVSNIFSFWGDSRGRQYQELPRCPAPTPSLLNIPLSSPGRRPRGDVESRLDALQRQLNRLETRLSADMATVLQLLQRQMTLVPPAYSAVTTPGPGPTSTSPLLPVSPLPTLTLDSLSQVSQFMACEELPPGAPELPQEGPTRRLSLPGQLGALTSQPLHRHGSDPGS

First: CCC(=O)N1CCN(c2ccc(NC(=O)c3ccco3)cc2)CC1
Second: O=C(NC(=S)Nc1ccccc1N1CCCCC1)c1ccco1
The “hERG current change (%, negative = inhibition) at 1uM” value of the first is higher: 9.45% for the first, -3.12% for the second.

First: O=c1c(Cc2ccccc2O)c(O)nc2n1CCCS2
Second: Cn1c(=O)n(CC(N)=O)c(=O)c2c1nc1n2CCCN1Cc1ccccc1
The “hERG current change (%, negative = inhibition) at 1uM” value of the first is higher: 12.2% for the first, 11.6% for the second.

Going from `CN(C)CCCN(C(=O)CCc1ccccc1)c1nc2ccc(F)cc2s1.Cl` to `CN(CCCNC(=O)C1CCC(=O)N1Cc1ccccc1Cl)c1ccccc1` (stereo not shown), the “hERG current change (%, negative = inhibition) at 1uM” value rises from -24.8% to 19.2%.

Going from `CCSc1ncc(Cl)c(C(=O)Nc2ccc(S(=O)(=O)Nc3onc(C)c3C)cc2)n1` to `COc1ccc(N(CC(=O)Nc2ccc(OC)c(Cl)c2)S(=O)(=O)c2c(C)noc2C)cc1`, the “hERG current change (%, negative = inhibition) at 1uM” value falls from 8.19% to 0.616%.

Going from `COc1ccccc1CN1C(=O)c2ccccc2C1C(=O)NC1CCC(C)CC1` (stereo not shown) to `CC(C(=O)NC1CCCCC1)N1C(=O)c2cccc3cccc1c23` (stereo not shown), the “hERG current change (%, negative = inhibition) at 1uM” value falls from 9.2% to 2.17%.

Going from `CCOC(=O)C1=C(COC(=O)c2ccco2)NC(=O)NC1CC` (stereo not shown) to `CC1CCCCC1NC(=O)CNC(=O)c1ccco1` (stereo not shown), the “hERG current change (%, negative = inhibition) at 1uM” value falls from 9.44% to 7.03%.

Compared with `O=C(Nc1ccn(-c2ccccc2)n1)c1ccc(Cl)cc1`, `O=C(OCC(=O)c1cccc2ccccc12)c1ccc(CO)cc1` is lower in “hERG current change (%, negative = inhibition) at 1uM” value: 14.3% for the first, 2.51% for the second.

First: Cc1cccc(CC(=O)NC2CCCCCC2)c1
Second: COC(=O)c1cc(=O)[nH]c(SCc2cccc(C)c2)n1
The “hERG current change (%, negative = inhibition) at 1uM” value of the first is lower: 12.1% for the first, 16% for the second.

First: O=C(/C=C/c1cccs1)N1CCN(c2ccccc2F)CC1
Second: COC(=O)c1cc(C(=O)N2CCN(c3cccc(Cl)c3)CC2)cc([N+](=O)[O-])c1
The “hERG current change (%, negative = inhibition) at 1uM” value of the first is higher: 3.41% for the first, -16.3% for the second.

Going from `Cc1ccnc(N2C(=O)c3ccccc3C2Nc2cccc(C)c2C)c1` (stereo not shown) to `Cc1c(N2C(=O)c3ccccc3C2(O)c2ccccc2)c(=O)n(-c2ccccc2)n1C` (stereo not shown), the “hERG current change (%, negative = inhibition) at 1uM” value falls from 12.2% to 11.3%.

Going from `C=CCNC(=O)C12CC3(C)CC(C)(CC(C)(C3)C1)C2` to `C[C@H]1CC[C@@H]2N(C1)C[C@H]1[C@@H]3C[C@H]4[C@@H](CC(=O)[C@H]5C[C@@H](O)CC[C@@]54C)[C@@H]3CC[C@H]1[C@]2(C)O.Cl`, the “hERG current change (%, negative = inhibition) at 1uM” value rises from 6.41% to 13.8%.

Going from `C=CCNc1nnnc2c1sc1nc(N3CCOCC3)c3c(c12)CCCC3` to `O=C(COC(=O)c1c2c(nc3ccccc13)CCCC2)c1cccs1`, the “hERG current change (%, negative = inhibition) at 1uM” value falls from 6.31% to 5.37%.

Compared with `COc1ccc(C2C(C#N)=C(N)OC3=C2C(=O)CCC3)cc1Cn1cc([N+](=O)[O-])cn1` (stereo not shown), `COc1cc(C2C(C#N)=C(N)Oc3n[nH]c(-c4cccs4)c32)cc(OC)c1O` (stereo not shown) is higher in “hERG current change (%, negative = inhibition) at 1uM” value: 7.6% for the first, 9.64% for the second.

Going from `CC(C)(C)c1cc(NC(=O)Nc2ccc(Cl)cc2Cl)no1` to `CC(C)(CNC(=O)Cc1ccc(Cl)cc1Cl)N1CCOCC1`, the “hERG current change (%, negative = inhibition) at 1uM” value falls from 15.1% to 8.48%.

Going from `Cc1cc(C)c(C#N)c(SCc2nc3ccccc3c(=O)[nH]2)n1` to `Cc1cc(=O)[nH]c(SCc2csc(-c3ccccc3)n2)n1`, the “hERG current change (%, negative = inhibition) at 1uM” value falls from 12.7% to 9.7%.

Compared with `CCOc1ccc(CC(C(=O)NN)C(=O)NN)cc1CN(C)C`, `CCC(C)c1ccccc1NC(=S)NC(=O)c1ccco1` (stereo not shown) is lower in “hERG current change (%, negative = inhibition) at 1uM” value: 10.4% for the first, 2.7% for the second.

First: Cc1cc(NC(=O)COC(=O)c2n[nH]c3ccccc23)no1
Second: Cc1cccnc1NC(=O)CNC(=O)COc1ccccc1
The “hERG current change (%, negative = inhibition) at 1uM” value of the first is higher: 14.4% for the first, 5.14% for the second.

First: CCN1C(=O)/C(=C\N(C(C)=O)c2ccccc2)OC1=S
Second: CC(=O)N1c2c(cc(Br)cc2S(=O)(=O)NCc2ccccc2)CC1C (stereo not shown)
The “hERG current change (%, negative = inhibition) at 1uM” value of the first is higher: 9.47% for the first, 4.34% for the second.

Compared with `Cc1cc(-c2ccc(C)c(S(=O)(=O)NCc3cccc(Br)c3)c2)on1`, `COc1ccccc1CNS(=O)(=O)c1cccc2nsnc12` is higher in “hERG current change (%, negative = inhibition) at 1uM” value: -0.583% for the first, 11.9% for the second.

First: COC(=O)c1ccccc1Sc1c(/C=N/OCc2ccc(Cl)cc2)c(C(F)(F)F)nn1C
Second: Nc1c(C(=O)NCc2ccc3c(c2)OCO3)nnn1-c1ccc(OC(F)(F)F)cc1
The “hERG current change (%, negative = inhibition) at 1uM” value of the first is lower: 8.8% for the first, 9.87% for the second.

Compared with `O=C(O)CSCC(=O)N1N=C2/C(=C/c3ccccc3)CCCC2C1c1ccccc1` (stereo not shown), `O=C(CSc1nc2ccccc2o1)Nc1ccccc1` is lower in “hERG current change (%, negative = inhibition) at 1uM” value: 17.3% for the first, -0.112% for the second.

Going from `O=C(O)/C=C/C(=O)Nc1ccc(OC(F)(F)Cl)cc1` to `COc1ccc(NC(=O)CN(C)C(=O)C(C)N2C(=O)c3ccccc3C2=O)cc1` (stereo not shown), the “hERG current change (%, negative = inhibition) at 1uM” value falls from 9.4% to -0.14%.

First: CC1(c2ccc(OC(F)F)cc2)NC(=O)N(CC(=O)Nc2ccc3[nH]c(=O)[nH]c3c2)C1=O (stereo not shown)
Second: CC(=O)Nc1ccc(S(=O)(=O)NC2(C(F)(F)F)NC(=O)N(c3ccccc3F)C2=O)cc1 (stereo not shown)
The “hERG current change (%, negative = inhibition) at 1uM” value of the first is lower: 16.3% for the first, 19.3% for the second.

Going from `O=[N+]([O-])c1cc(/C=N/Nc2nc3ccccc3[nH]2)c(O)cc1O` to `CN(/N=C/c1cc(Cl)ccc1O)C1=NS(=O)(=O)c2ccccc21`, the “hERG current change (%, negative = inhibition) at 1uM” value rises from 14.2% to 17.3%.

Going from `Cc1ccc(CN(C)C(=O)CN2C(=O)NC(c3ccccc3)(c3ccccc3)C2=O)c(C)c1` to `COc1cc(OC)cc(C(=O)NC(c2ccccc2)c2ccccc2)c1`, the “hERG current change (%, negative = inhibition) at 1uM” value rises from 2.39% to 13.9%.

First: Cc1nc(NC(=O)CSc2nnnn2Cc2ccccc2)sc1C
Second: Cc1ccccc1NS(=O)(=O)c1nnc(NC(=O)CC(C)C)s1
The “hERG current change (%, negative = inhibition) at 1uM” value of the first is lower: 9.78% for the first, 14.6% for the second.

Compared with `O=C(NNC1=NCCC1)c1cccc(S(=O)(=O)N2CCCC2)c1`, `CCOc1ccc(N2CC(C(=O)Nc3cccc(S(=O)(=O)NC4=NCCC4)c3)CC2=O)cc1` (stereo not shown) is lower in “hERG current change (%, negative = inhibition) at 1uM” value: 19.3% for the first, 3.13% for the second.

Going from `COc1cccc(C(C(=O)NCc2ccco2)N(C(=O)Cn2nnc3ccccc32)C2CC2)c1OC` (stereo not shown) to `CCOc1ccccc1-c1cc(C(=O)N/N=C/c2ccc(O)c(OC)c2)c2ccccc2n1`, the “hERG current change (%, negative = inhibition) at 1uM” value falls from -4.4% to -10.2%.

Going from `COc1ccc(/C=C2\SC(N)=NC2=O)cc1Cl` to `Cc1cc(=O)c2n(Cc3ccccc3Cl)nc[n+]2[nH]1.[Cl-]`, the “hERG current change (%, negative = inhibition) at 1uM” value falls from 13.2% to -1.53%.

Going from `CC(=O)/C(N)=N/Nc1cccc(Cl)c1` to `Cc1ccc(NC(=O)CN(C)S(=O)(=O)c2cccc3nsnc23)cc1Cl`, the “hERG current change (%, negative = inhibition) at 1uM” value falls from 14.4% to 11.3%.

Going from `COc1ccc(C(=O)Nc2nc(-c3cccs3)cs2)cc1` to `Cc1ccc2nc(C)c(C(=O)N/N=C/c3cccs3)n2c1`, the “hERG current change (%, negative = inhibition) at 1uM” value rises from -0.646% to 11.9%.

Compared with `Cc1ccc(C(=O)n2cnnc2N)cc1`, `Cc1ccc(-c2cc(C(=O)N3CC(C)CC(C)C3)c3ccccc3n2)o1` (stereo not shown) is higher in “hERG current change (%, negative = inhibition) at 1uM” value: 3.04% for the first, 5.05% for the second.

First: O=C(CCNC(=O)c1ccc([N+](=O)[O-])cc1)Nc1ccccc1N1CCCCC1
Second: COc1ccccc1OCCNC(=O)CCNC(=O)c1ccccc1Cl
The “hERG current change (%, negative = inhibition) at 1uM” value of the first is lower: -7.61% for the first, 13.8% for the second.

First: CC(C)C/C(=N/O)c1cn(C)c2ccccc12
Second: CCCCNC(=O)n1c(SC)nc2ccccc21
The “hERG current change (%, negative = inhibition) at 1uM” value of the first is higher: 13.3% for the first, 9.24% for the second.

Compared with `Cc1ccc(Cl)cc1N1CCN(Cc2nc3c(c(=O)[nH]c(=O)n3C)n2CCc2ccccc2)CC1`, `Cl.O=C(c1ccco1)N1CCN(CCOCCOc2cccc3ccccc23)CC1` is lower in “hERG current change (%, negative = inhibition) at 1uM” value: 11.1% for the first, -26.2% for the second.

First: Cc1[nH]c2ccc(CNS(=O)(=O)c3ccc(S(=O)(=O)N4CCOCC4)cc3)cc2c1C
Second: Cc1ccc(S(=O)(=O)NCC(C)NS(=O)(=O)c2ccccc2[N+](=O)[O-])cc1 (stereo not shown)
The “hERG current change (%, negative = inhibition) at 1uM” value of the first is lower: 4.76% for the first, 15.4% for the second.

First: COC(=O)c1cccc(C23CC4(C2)[C@H](CN(Cc2cccnc2)[C@@H]4c2ccccc2)C3c2ccc(C(F)(F)F)cc2)c1 (stereo partly shown)
Second: CCN(CC(=O)NCc1cccs1)C(=O)c1cccc(S(=O)(=O)N2CCc3ccccc32)c1
The “hERG current change (%, negative = inhibition) at 1uM” value of the first is higher: 8.87% for the first, -13.9% for the second.

Compared with `CSCc1c(C(=O)NCCc2ccccn2)oc2ccccc12`, `Cc1cccc(C)c1OCC(O)CNC(C)c1ccccc1.Cl` (stereo not shown) is higher in “hERG current change (%, negative = inhibition) at 1uM” value: 5.17% for the first, 9.96% for the second.

Going from `COc1cc(C=O)c(-c2c(C=O)cc(OC)c3c2OCO3)c2c1OCO2` to `COc1ccccc1-n1c(-c2ccc(NS(C)(=O)=O)cc2)n[nH]c1=S`, the “hERG current change (%, negative = inhibition) at 1uM” value falls from 15.3% to 14.1%.

Going from `Cc1ccc(CN2CCN(/N=C/c3cccnc3)CC2)c(C)c1` to `Cc1ccc(N2CC(C(=O)N3CCC(C(=O)NCCCOC(C)C)CC3)CC2=O)cc1` (stereo not shown), the “hERG current change (%, negative = inhibition) at 1uM” value rises from -18.2% to 10.9%.

Compared with `CC(C)CN(C(=O)CSc1ncnc2sccc12)C1CCS(=O)(=O)C1` (stereo not shown), `CCc1c(C)nc2ncnn2c1N1CCCC(C(=O)NCc2ccco2)C1` (stereo not shown) is lower in “hERG current change (%, negative = inhibition) at 1uM” value: -3.06% for the first, -21.1% for the second.

Going from `Cn1ccnc1P(=S)(c1nccn1C)N1CCOCC1` to `CC1CCN(c2nc(N3CCCCC3)nc(N3CCCCC3)n2)CC1`, the “hERG current change (%, negative = inhibition) at 1uM” value rises from 8.99% to 10.7%.

First: Oc1ccc(N=Nc2ccccc2-c2nn[nH]n2)c(O)c1
Second: O=C(Nc1ccc(Nc2ccccc2)cc1)C1CC1
The “hERG current change (%, negative = inhibition) at 1uM” value of the first is higher: 11.7% for the first, -6.21% for the second.

Going from `Cc1ccc(O)c(CO)n1` to `O=C(CCCn1c(=O)[nH]c2ccsc2c1=O)NCc1cccs1`, the “hERG current change (%, negative = inhibition) at 1uM” value rises from 12.3% to 12.9%.

Source: article PMC4336329 (PLoS ONE, 2015)
